# Measurements as given in patent US5760092A, “Allocolchinones and uses thereof” (Brandeis University, priority 1996, dated 1998).
# “And” between values parts separate entries of the source, which are not always exact repeats. Identical values can stand only once.
# Assays:
# [1] = test system: NCI-H226 non-small cell lung cancer cells
# [2] = test system: COLO 205 colon cancer cells
# [3] = test system: MDA-N breast cancer cells
# [4] = test system: MDA-MB-231/ATCC breast cancer cells; test: cells; settings: Homo sapiens; for GI50: MDA-MB-231
# [5] = test system: RPMI-8226 leukemia cells
# [6] = test system: HCT-116 colon cancer cells
# [7] = test system: HT29 colon cancer cells
# [8] = test system: KM12 colon cancer cells
# [9] = test system: LOX IMVI melanoma cells
# [10] = test system: M14 melanoma cells
# [11] = test system: SK-MEL-2 melanoma cells
# [12] = test system: ACHN renal cancer cells
# [13] = test system: PC-3 prostate cancer cells
# [14] = test system: DU-145 prostate cancer cells
# [15] = test system: MDA-MB-231/ATCC breast cancer cells
# [16] = test system: BT-549 breast cancer cells
smiles,measurement,setting,value
CCCC(=O)NC1CCc2cc(OC)c(OC)c(OC)c2-c2ccc(C(C)=O)cc21 (stereo not shown),TGI,[1],0.0189 µM and < 0.01 µM
same,TGI,[2],0.0156 µM and < 0.01 µM
same,TGI,[3],< 0.01 µM
same,GI50,[4],< 0.01 µM
same,CC50,"[4]; MDA-MB-231, read-out: LC50",> 100 µM
"COc1cc2c(c(OC)c1OC)-c1ccc(OC)c(=O)cc1[C@@H](NC(C)=O)CC2 [Colchicine, reference compound]",TGI,[5],> 100 µM
same,TGI,[6],100 µM
same,TGI,[7],0.114 µM
same,GI50,[8],0.0295 µM
same,TGI,[8],> 100 µM
same,TGI,[9],0.144 µM
same,TGI,[10],28.4 µM
same,TGI,[11],< 0.01 µM
same,TGI,[12],> 100 µM
same,TGI,[13],> 100 µM
same,TGI,[14],> 100 µM
same,TGI,[15],> 100 µM
same,TGI,[3],56.2 µM
same,TGI,[16],50.2 µM
same,GI50,[4],7.13 µM
same,activity at 100 µM,"[4]; MDA-MB-231, read-out: Percent Growth, log10 conc -4.0",23%
same,activity at 10 µM,"[4]; MDA-MB-231, read-out: Percent Growth, log10 conc -5.0",48%
same,activity at 1 µM,"[4]; MDA-MB-231, read-out: Percent Growth, log10 conc -6.0",60%
same,activity at 0.1 µM,"[4]; MDA-MB-231, read-out: Percent Growth, log10 conc -7.0",57%
same,activity at 0.01 µM,"[4]; MDA-MB-231, read-out: Percent Growth, log10 conc -8.0",65%
